For 19 variants, self-cleavage results are on record in the RNAGym collection of RNA variant scans (doi:10.7554/elife.90254).

First the molecules themselves.
B1: LINE1-full (parent)
chain: UACGUAGGUGGUUUUCCCCUGAUAGUGCUAAGGGGGCCUGGAAGUUUGGACUGGGCAGAGCUCAACACAGCGUGGCAAAGUGGCUGUGGCUAGACUGCCUCUCUGGAUUCCUCGUCACUCAGCAGGGCAUCUCUGAGAGAAAUGCC

Read counts are not given, so values of variants with three or more changes are uncertain.

This series covers variants of B1. The experiment in a line: self-cleavage, relative activity (ratio to wild type); higher = more cleavage; in vitro, sequencing; the parent is a self-cleaving ribozyme.
For the variant UACGUAGGUGGUUUUCCCCUGAUAGUGCUAAGGGGGCCUGGAAGCUUGGACUGGGCGGAGCUCAACACAGCGUGGCAAGGUGGCUGUGGCUAGACUGCCUCUCUGGAUUCCUCGUCACUCAGCAGGGCAUCUCUGAGAGAAAUGCC [U45C A57G A79G], the self-cleavage was determined as 1.53. The same measure for UACGUAGGUGGUUUUCCCCUGAUAGUGCUAAGGGGGCCUGGAAGAUUGGACUGGGCAGAGCUCAAAACAGCGCGGCGAAGUGGCUGUGGCUAGACUGCCUCUCUGGAUUCCUCGUCACUCAGCAGGGCACCUCUGAGAGAAAUGCC [U45A C66A U73C A77G U130C]: 0.02. The same measure for UACGUAGGUGGUUUUCCCCUGAUAGUGCUAAGGGGGCCUGGAAGAUUGGACUGGGCAGGGCUCAACGCAGCGUGGCAAAGUGGCUGUGGCUAGACUGCCUCUCUGGAUUCCUCGUCACUCAGCAGGGCACCUCUGAGGGGAAUGCC [U45A A59G A67G U130C A138G A140G]: 0; for UACGUAGGUGGUUUUCCCCUGAUAGUGCUAAGGGGGCCUGGAAGAUUGGACUGGGCAGAGCUCAACACAGCGUGGCAAAGUGGCUGUGGCUAGACUGCCUCUCUGGAUUCCUCGCCACUCAGCAGGGCUUCUCUGAGAGAAAUGCC [U45A U115C A129U]: 2.06; for UACGUAGGUGGUUUUCCCCUGAUAGUGCUAAGGGGGCCUGGAAGCUUGGACUGGGCAGGGCUCAACACAGCGUGGCAAAGUGGCUGUGGCUAGACUGCCUCCCUGGAUUCCUCGUCACUCAGCAGGGCAUCUCUGAGAGAAAUGCC [U45C A59G U102C]: 0. Next, UACGUAGGUGGUUUUCCCCUGAUAGUGCUAAGGGGGCCUGGAAGCUUGGACUGGGCAGAGCUCGACACAGCGUGGCAAAAUGGCUGUGGCUAGACUGCCUCUCCGGAUUCCUCGUCACUCAGCUAGGCAUCUCUGAGAGAAGUGCC [U45C A64G G80A U104C A124U G125A A142G]: 0.4; UACGUAGGUGGUUUUCCCCUGAUAGUGCUAAGGGGGCCUGGAAGAUUGGACUGGGCAGAGCUCAACACAGCGUGGCAGAGUGGCUGUGGCUAGACUGCCUCUCUGGAUUCCUCGUCACUCAGCAGGGCAUCUCUGAGAGGAAUGCC [U45A A78G A140G]: 1.14; UACGUAGGUGGUUUUCCCCUGAUAGUGCUAAGGGGGCCUGGAAGAUUGGACUGGGCAGAGCUCAACACAGCGUGGCAAAGUGGCUGUGGCUAGACUGCCUCUCUGGAUUCCUCAUCACCCAGCAGGGCAUCUCUGAGAGAAAUGCC [U45A G114A U119C]: 1.9. With UACGUAGGUGGUUUUCCCCUGAUAGUGCUAAGGGGGCCUGGAAGAUUGGACUGGGCAGAGCUCAACACAGCGUGGCAAAGUGGCUAUGGCUAGACUGCCUCUCUGGAUUCCUCGCCACUCAGCAGGGCAUCUCUGAGAGAAAUGCC [U45A G86A U115C], the self-cleavage came to 0.09. Next, UACGUAGGUGGUUUUCCCCUGAUAGUGCUAAGGGGGCCUGGAAGCUUGGACUGGGCUGAGCUCAACACUGCGUGGCAAAGUGGCUGUGGCUAGACUGCCUCUCUGGAUUCCUCGUCACUCAGCAGGGCAUCUCUGAGAGAAAUGCC [U45C A57U A69U]: 0.11. Next, UACGUAGGUGGUUUUCCCCUGAUAGUGCUAAGGGGGCCUGGAAGAUUGGACAGGGCAGAGCUCAACACAGCGUGGCAAAGAGGCUGUGGCUAGACUGCCUCUCUGGAUUCCUCGUCACUCAGCAGGGCAUCUCUGAGAGAAAUGCC [U45A U52A U81A]: 1.41; UACGUAGGUGGUUUUCCCCUGAUAGUGCUAAGGGGGCCUGGAAGAUUGGACUGGGCAGAGCUCAACACUGCGUGGCAAAGUGGCUGUGGCUAGACUGCCUCUCUGGAUUCCUCGUCACUCAGCAGUGCACCUCUGAGAGAAAUGCC [U45A A69U G126U U130C]: 0.04.

For UACGUAGGUGGUUUUCCCCUGAUAGUGCUAAGGGGGCCUGGAAGAUUGGACUGGGCAGAGCUCAACACAGCGUGGCAAAGAGGCUGUGGCUAGACUGCCUCUCUGGAUUCCUCGUCACUCGGCAGGGCAUCUCUGAGAGGAAUGCC [U45A U81A A121G A140G], the self-cleavage amounted to 2.07. Next, UACGUAGGUGGUUUUCCCCUGAUAGUGCUAAGGGGGCCUGGAAGCUUGGACUGGGCUGAGCUCAACACAGCGUGGCAAAGUGGCUGUGGCUAGACUGCCUCUCUGGGUUCCUCGUCACUCAGCAGGGCAUCUCUGAGAGAGAUGCC [U45C A57U A107G A141G]: 0.14.

Regarding UACGUAGGUGGUUUUCCCCUGAUAGUGCUAAGGGGGCCUGGAAGAUUGGACUGGGCAGAGCUCAACACAGCGUGGCAAAGUGGCUGUGGCUAGACUGCCUCUCUGGAAUCCUCGACACUCAGCAGGGCAUCUCUGAGAGAAAUGCC [U45A U108A U115A], the self-cleavage is 0.14. The same measure for UACGUAGGUGGUUUUCCCCUGAUAGUGCUAAGGGGGCCUGGAAGAUAGGACUGGGCAGAGCUCAACACAGCGUGGCAAAGUGGCUGUGGCUAGUCUGCCUCUCUGGAUUCCUCGUCACUCAGCAGGGCAUCUCUGAGAGAGAUGCC [U45A U47A A94U A141G]: 0.27. The same measure for UACGUAGGUGGUUUUCCCCUGAUAGUGCUAAGGGGGCCUGGAAGAUUGGACUGGGCAGAGCUCAACACAGCGUGGCAAGGUGGCAUUGGCUAGACUGCCUCUCUGGAUUCCUCGUCACUCAGCAGGGCAUCUCUGAGAGAAAUGCC [U45A A79G U85A G86U]: 0.05. Next, UACGUAGGUGGUUUUCCCCUGAUAGUGCUAAGGGGGCCUGGAAGACUGGACUGGGCAGAGCUCAACACAGCGUGGCAAAGUGGUUGUGGCUAGACUGCCUCUCUGGAUUCCUCGUCACUCAGCAGGGCGUCUCUGAGAGAAAUGCC [U45A U46C C84U A129G]: 0.25; UACGUAGGUGGUUUUCCCCUGAUAGUGCUAAGGGGGCCUGGAAGCUUGGACUGGGCAGAGCUCUACACAGCGUGGCAAAGUGGCUGUAGCUAGACUGCCUCUCUGGAUUCCUCGUCACUCAGCAGGGCAUCUCUGAGAGAAAUGCC [U45C A64U G88A]: 0.
